The values that follow come from PubChem BioAssay (NCATS).

The list shows a part of the results. These are further read-outs of the screen, such as a control signal, another cell line or another target. No call is given for them. For part of these data: Most of these compounds were active or inconclusive in the main read-out, so they are no random draw. The note in brackets gives the kind of curve behind each potency; many fits are weak.

The nature of assay [1]: qHTS drug screen for cell cycle checkpoint inhibitors in PARPi-resistant BRCA-mutant ovarian cancer cell lines. (AID 1963452). The following applies: PEO1/OlaR viability, CellTiter-Glo luminescence, 96 h. The method, boiled down: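 PEO1, PEO4 and PEO1/OlaR ovarian cancer cells, 600 per well, exposed 96 h at 37C to a dilution series. Viability read by CellTiter-Glo luminescence, normalized to DMSO and empty wells; activity summarized as Z-AUC.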

Assay [2] can be described thus: qHTS for identification of novel therapeutic agents for treatment of microphthalmiaassociated transcription factor (MiT) renal cell carcinoma (RCC) (AID 1963991). The conditions noted are these: CellTiter-Glo, 48 h; for z-score: stronger effect = lower value. A digest of the protocol:
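Viability of three TFE3-fusion renal carcinoma lines measured by CellTiter-Glo after 48 h treatment with each of 1912 compounds at 11 concentrations. Responses scaled between DMSO (100%) and empty wells (0%) before curve fitting.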

Where [3] appears, read: measured here: PEO1 parental viability.
Setting [4] is: TFE3-RCC UOK109 viability, measured here: UOK109 Z-AUC.
Setting [5] is: TFE3-RCC viability, measured here: UOK124 Z-AUC.
The mark [6] stands for this setting: TFE3-RCC viability, measured here: UOK124 cell viability.
The mark [7] stands for this setting: TFE3-RCC viability, measured here: UOK145 Z-AUC.
Setting [8] is: TFE3-RCC viability, measured here: UOK145 cell viability.

For orientation: AC50 means the concentration at which the activity in the assay is half-maximal.
Tags describe the fitted curve by direction and shape.

Turning to `CNC(=O)c1cc(Oc2ccc(NC(=O)Nc3ccc(Cl)c(C(F)(F)F)c3)c(F)c2)ccn1`, the AC50 is 13.8 µM [falling, partial curve] in assay [1] (setting [3]); 24.5 µM [falling, single point] in assay [1] (measured here: PEO4 viability); 23.5 µM [falling, partial curve, poor fit] in assay [2] (setting [6]); 37.2 µM [falling, single point] in assay [2] (setting [8]). Besides, the z-score in assay [2] (setting [4]) was 0.0684; in assay [2] (setting [5]), -1.5; in assay [2] (setting [7]), -1.06.

In the case of `O=C(Nc1cccc(Nc2ncc(Br)c(NCCc3cnc[nH]3)n2)c1)N1CCCC1`, the AC50 in assay [1] (setting [3]) is 19.5 µM [falling, partial curve]; in assay [1] (measured here: PEO4 viability) it was 8.71 µM [falling, partial curve]; in assay [2] (setting [6]) it was 16.6 µM [falling, partial curve]; in assay [2] (setting [8]) it was 18.7 µM [falling, partial curve]. For the same compound, the z-score in assay [2] (setting [4]) came out at 1.46; in assay [2] (setting [5]), 1.39; in assay [2] (setting [7]) it was 0.496.

As for `COc1ccc2nc3cc(Cl)ccc3c(Nc3cc(CN4CCCC4)c(O)c(CN4CCCC4)c3)c2n1`, the concentration at half-maximal activity (AC50) is 24.5 µM [falling, single point] in assay [1] (setting [3]); 27.5 µM [falling, single point] in assay [1] (measured here: PEO4 viability); 20.9 µM [falling, partial curve] in assay [2] (setting [6]); 20.9 µM [falling, partial curve] in assay [2] (setting [8]). Moreover, the z-score in assay [2] (setting [4]) worked out at 0.317; in assay [2] (setting [5]), 0.657; in assay [2] (setting [7]), 0.491.
